The supplement of paper PMC8728848
Some of the results follow.

Key:
Assay in all cases: glycan array binding signal (z-score within array); higher = stronger binding
Conditions in all cases: glycan notation: IUPAC condensed, linker removed
[1] = molecular target: Gal(b1-4)GlcNAc(b1-3)Gal(b1-4)GlcNAc(b1-3)Gal(b1-4)GlcNAc(b1-3)Gal(b1-4)GlcNAc(b1-2)Man(a1-3)[Gal(b1-4)GlcNAc(b1-3)Gal(b1-4)GlcNAc(b1-3)Gal(b1-4)GlcNAc(b1-3)Gal(b1-4)GlcNAc(b1-2)Man(a1-6)]Man(b1-4)GlcNAc(b1-4)[Fuc(a1-6)]GlcNAc
Summary of the method: (§1)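 Negative Z-scores can be read as non-binding. The Z-score is calculated within each array and then averaged across arrays of one protein sequence at different concentrations or buffers and across linkers. Arrays, 3228 in all, were curated from the Consortium for Functional Glycomics database and kept only where the protein sequence was available.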

[2] = molecular target: Gal(b1-4)GlcNAc(b1-3)Gal(b1-4)GlcNAc(b1-3)Gal(b1-4)GlcNAc(b1-3)Gal(b1-4)GlcNAc(b1-2)[Gal(b1-4)GlcNAc(b1-3)Gal(b1-4)GlcNAc(b1-3)Gal(b1-4)GlcNAc(b1-3)Gal(b1-4)GlcNAc(b1-6)]Man(a1-6)[Gal(b1-4)GlcNAc(b1-3)Gal(b1-4)GlcNAc(b1-3)Gal(b1-4)GlcNAc(b1-3)Gal(b1-4)GlcNAc(b1-2)Man(a1-3)]Man(b1-4)GlcNAc(b1-4)[Fuc(a1-6)]GlcNAc
Summary of the method: as §1

[3] = molecular target: Gal(b1-4)GlcNAc(b1-3)Gal(b1-4)GlcNAc(b1-3)Gal(b1-4)GlcNAc(b1-3)Gal(b1-4)GlcNAc(b1-3)Gal(b1-4)GlcNAc(b1-2)Man(a1-3)[Gal(b1-4)GlcNAc(b1-3)Gal(b1-4)GlcNAc(b1-3)Gal(b1-4)GlcNAc(b1-3)Gal(b1-4)GlcNAc(b1-3)Gal(b1-4)GlcNAc(b1-2)Man(a1-6)]Man(b1-4)GlcNAc(b1-4)GlcNAc
Summary of the method: as §1

[4] = molecular target: Gal(b1-4)GlcNAc(b1-3)Gal(b1-4)GlcNAc(b1-3)Gal(b1-4)GlcNAc(b1-3)Gal(b1-4)GlcNAc(b1-3)Gal(b1-4)GlcNAc(b1-2)Man(a1-3)[Gal(b1-4)GlcNAc(b1-3)Gal(b1-4)GlcNAc(b1-3)Gal(b1-4)GlcNAc(b1-3)Gal(b1-4)GlcNAc(b1-3)Gal(b1-4)GlcNAc(b1-2)Man(a1-6)]Man(b1-4)GlcNAc(b1-4)[Fuc(a1-6)]GlcNAc
Summary of the method: as §1

[5] = molecular target: Gal(b1-4)GlcNAc(b1-3)Gal(b1-4)GlcNAc(b1-3)Gal(b1-4)GlcNAc(b1-3)Gal(b1-4)GlcNAc(b1-3)Gal(b1-4)GlcNAc(b1-2)[Gal(b1-4)GlcNAc(b1-3)Gal(b1-4)GlcNAc(b1-3)Gal(b1-4)GlcNAc(b1-3)Gal(b1-4)GlcNAc(b1-3)Gal(b1-4)GlcNAc(b1-6)]Man(a1-6)[Gal(b1-4)GlcNAc(b1-3)Gal(b1-4)GlcNAc(b1-3)Gal(b1-4)GlcNAc(b1-3)Gal(b1-4)GlcNAc(b1-3)Gal(b1-4)GlcNAc(b1-2)Man(a1-3)]Man(b1-4)GlcNAc(b1-4)[Fuc(a1-6)]GlcNAc
Summary of the method: as §1

[6] = molecular target: Gal(b1-4)GlcNAc(b1-3)Gal(b1-4)GlcNAc(b1-3)Gal(b1-4)GlcNAc(b1-3)Gal(b1-4)GlcNAc(b1-3)Gal(b1-4)GlcNAc(b1-3)Gal(b1-4)GlcNAc(b1-2)Man(a1-3)[Gal(b1-4)GlcNAc(b1-3)Gal(b1-4)GlcNAc(b1-3)Gal(b1-4)GlcNAc(b1-3)Gal(b1-4)GlcNAc(b1-3)Gal(b1-4)GlcNAc(b1-3)Gal(b1-4)GlcNAc(b1-2)Man(a1-6)]Man(b1-4)GlcNAc(b1-4)GlcNAc
Summary of the method: as §1

[7] = molecular target: Gal(b1-4)GlcNAc(b1-3)Gal(b1-4)GlcNAc(b1-3)GalNAc
Summary of the method: as §1

[8] = molecular target: Gal(b1-4)GlcNAc(b1-3)Gal(b1-4)GlcNAc(b1-3)[Gal(b1-4)GlcNAc(b1-3)Gal(b1-4)GlcNAc(b1-6)]GalNAc
Summary of the method: as §1

[9] = molecular target: Gal(b1-4)GlcNAc(b1-3)Gal(b1-4)GlcNAc(b1-6)[Gal(b1-3)]GalNAc
Summary of the method: as §1

[10] = molecular target: Gal(b1-4)GlcNAc(b1-3)Gal(b1-4)[Fuc(a1-3)]GlcNAc(b1-3)Gal(b1-4)[Fuc(a1-3)]GlcNAc
Summary of the method: as §1

[11] = molecular target: Gal(b1-4)GlcNAc(b1-3)GalNAc
Summary of the method: as §1

[12] = molecular target: Gal(b1-4)GlcNAc(b1-3)[Fuc(a1-3)GlcNAc(b1-6)]Gal(b1-4)Glc
Summary of the method: as §1

[13] = molecular target: Gal(b1-4)GlcNAc(b1-3)[Gal(b1-4)GlcNAc(b1-6)]Gal(b1-4)GlcNAc
Summary of the method: as §1

[14] = molecular target: Gal(b1-4)GlcNAc(b1-3)[GlcNAc(b1-6)]Gal(b1-4)GlcNAc
Summary of the method: as §1

[15] = molecular target: Gal(b1-4)GlcNAc(b1-6)Gal(b1-4)GlcNAc
Summary of the method: as §1

[16] = molecular target: Gal(b1-4)GlcNAc(b1-6)GalNAc
Summary of the method: as §1

[17] = molecular target: Gal(b1-4)GlcNAc(b1-6)[Gal(b1-3)]GalNAc
Summary of the method: as §1

[18] = molecular target: Gal(b1-4)GlcNAc(b1-6)[Gal(b1-4)GlcNAc(b1-3)]GalNAc
Summary of the method: as §1

[19] = molecular target: Gal(b1-4)GlcNAc6P
Summary of the method: as §1

[20] = molecular target: Gal(b1-6)Gal
Summary of the method: as §1

[21] = molecular target: Gal3S(b1-3)GalNAc
Summary of the method: as §1

[22] = molecular target: Gal3S(b1-3)GlcNAc
Summary of the method: as §1

[23] = molecular target: Gal3S(b1-3)[Fuc(a1-4)]GlcNAc
Summary of the method: as §1

B1: diCBM40 CPF071 (Clostridium perfringens) (protein)
chain: MAHHHHHHVGTGSNDDDDKSPDPMLSSLGEYKDINLESSNASNITYDLEKYKNLDEGTIVVRFNSKDSKIQSLLGISNSKTKNGYFNFYVTNSRVGFELRNQKNEGNTQNGTENLVHMYKDVALNDGDNTVALKIEKNKGYKLFLNGKMIKEVKDTNTKFLNNIENLDSAFIGKTNRYGQSNEYNFKGNIGFMNIYNEPLGDDYLLSKTGETKALNGSELGSGSGLSSLGEYKDINLESSNASNITYDLEKYKNLDEGTIVVRFNSKDSKIQSLLGISNSKTKNGYFNFYVTNSRVGFELRNQKNEGNTQNGTENLVHMYKDVALNDGDNTVALKIEKNKGYKLFLNGKMIKEVKDTNTKFLNNIENLDSAFIGKTNRYGQSNEYNFKGNIGFMNIYNEPLGDDYLLSKTGETK
glycan array binding signal (z-score) [1]: 0.079 | glycan array binding signal (z-score) [2]: 0.617 | glycan array binding signal (z-score) [3]: -0.231 | glycan array binding signal (z-score) [4]: -0.223 | glycan array binding signal (z-score) [5]: 0.352 | glycan array binding signal (z-score) [6]: -0.254 | glycan array binding signal (z-score) [7]: -0.333 | glycan array binding signal (z-score) [8]: -0.29 | glycan array binding signal (z-score) [9]: -0.304 | glycan array binding signal (z-score) [10]: -0.308 | glycan array binding signal (z-score) [11]: -0.315 | glycan array binding signal (z-score) [12]: -0.294 | glycan array binding signal (z-score) [13]: -0.222 | glycan array binding signal (z-score) [14]: -0.349 | glycan array binding signal (z-score) [15]: -0.333 | glycan array binding signal (z-score) [16]: -0.002 | glycan array binding signal (z-score) [17]: 0.586 | glycan array binding signal (z-score) [18]: -0.295 | glycan array binding signal (z-score) [19]: -0.237 | glycan array binding signal (z-score) [20]: 0.363 | glycan array binding signal (z-score) [21]: -0.333 | glycan array binding signal (z-score) [22]: -0.334 | glycan array binding signal (z-score) [23]: -0.331
